According to patent US20230331823A1 (HENRY M JACKSON FOUNDATION FOR THE ADVANCEMENT OF MILITARY …, published 2023):

How the values were obtained:
[1] = biological target: SARS-CoV-2 WA-1 Spike on pseudovirions (SARS-CoV-2); test: cell-based or functional assay
SARS-CoV-2 NTD WA-1 = biological target: T1, SARS-CoV-2 NTD WA-1 (SARS-CoV-2); test: BLI, ShAb-Fc on AHC probe, NTD analyte
T1 construct: domain: NTD

[2] = biological target: SARS-CoV-2 WA-1 Spike on pseudovirions (SARS-CoV-2); test: cell-based or functional assay; remark: listed apart in the source

B1: ShAb23a (ShAb23 VNAR-3c-Fc) (Fc fusion)
chain: ARVDQTPQTITKETGESLTINCVLRDSNCALGSTYWYRKKSGSTNEENISKGGRYVETVRSGSKSLSLRINDLTVEDSGTYRCKVSRLSWYPESRWNCDNYDVYGDGTAVTVNSREPKSCDKGLEVLFQ[no letters for human IgG1 Fc and a few adjoining residues]
[1]
  pseudovirus neutralization IC50: 0.033 µg/mL
  pseudovirus neutralization IC80: 0.21 µg/mL

B2: ShAb08a (ShAb08 VNAR-3c-Fc) (Fc fusion)
chain: ARVDQTPKTITKETGESLTINCVLRDSNCAASSTYWYRKKSGSNNEESISKGGRYVETVNSGSKSFSLRINDLTVEDSGTYRCNVEGYSCGLYSVEDYYGGGTVVTVNSREPKSCDKGLEVLFQ[no letters for human IgG1 Fc and a few adjoining residues]
[1]
  pseudovirus neutralization IC50: 3.04 µg/mL
  pseudovirus neutralization IC80: > 50 µg/mL

B3: ShAb19a (ShAb19 VNAR-3c-Fc) (Fc fusion)
chain: ARVDQTPQTITKATGESLTINCVLRDASYALGRTCWYRKKSGSTNEESISLGGRYVETVNSGSKSFSLRINDLTVEDGGTYRCGAHRWWTVCGMPAPYAESGGGTVVTVNSREPKSCDKGLEVLFQ[no letters for human IgG1 Fc and a few adjoining residues]
[1]
  pseudovirus neutralization IC50: 0.845 µg/mL
  pseudovirus neutralization IC80: > 5 µg/mL

B4: ShAb06a (ShAb06 VNAR-3c-Fc) (Fc fusion)
chain: ARVDQTPRSVTKETGESLTINCVLRDASYALGSTCWYRKKSGSTNEESISKGGRYVETVNSGSKSFSLRINDLTVEDGGTYRCGVGRGLGVGCDYPLCSYSYAACGDGTAVTVNSREPKSCDKGLEVLFQ[no letters for human IgG1 Fc and a few adjoining residues]
SARS-CoV-2 NTD WA-1
  Kd: 105 nM
  koff: 0.0102 s⁻¹
  kon: 97000 M⁻¹ s⁻¹
[1]
  pseudovirus neutralization IC50: 2.35 µg/mL
  pseudovirus neutralization IC80: 15 µg/mL

B5: ShAb07a (ShAb07 VNAR-3c-Fc) (Fc fusion)
chain: ARVDQTPQTITKETGESLTINCVLRDASYALGSTCWYRKKSGSTNWESIGKGGRYVETVNSGSKSFSLRINDLTVEDGGTYRCGVGRGAGVGCDYPLCSYSYAACGGGTVVTVNSREPKSCDKGLEVLFQ[no letters for human IgG1 Fc and a few adjoining residues]
SARS-CoV-2 NTD WA-1
  Kd: 82.8 nM
  koff: 0.0074 s⁻¹
  kon: 89400 M⁻¹ s⁻¹
[1]
  pseudovirus neutralization IC50: 2.07 µg/mL
  pseudovirus neutralization IC80: > 50 µg/mL

B6: ShAb04a (ShAb04 VNAR-3c-Fc) (Fc fusion)
chain: ARVDQTPQTITKETGESLTINCGLRDSNCALSSTYWYRKKSGSTNEESISKGGRYVETVNSGPLTFSLRINDLTVEDSGTYRCKVSCLAIPIGPHYDVYGGGTVVTVNSREPKSCDKGLEVLFQ[no letters for human IgG1 Fc and a few adjoining residues]
SARS-CoV-2 NTD WA-1
  Kd: 44.2 nM
  koff: 0.00139 s⁻¹
  kon: 31300 M⁻¹ s⁻¹
[1]
  pseudovirus neutralization IC50: 3.91 µg/mL
  pseudovirus neutralization IC80: > 50 µg/mL

B7: ShAb16a (ShAb16 VNAR-3c-Fc) (Fc fusion)
chain: ARVDQTPRSVTKETGESLTINCVLRDATYALGNTCWYRKKSGSSTEESISKGGRYVETVNSGSKSFSLRINDLTVEDGGTYRCGVWPGYNWCGSCDYVHDALHVFCGGGTVVTVNSREPKSCDKGLEVLFQ[no letters for human IgG1 Fc and a few adjoining residues]
SARS-CoV-2 NTD WA-1
  Kd: 8.5 nM
  koff: 0.000713 s⁻¹
  kon: 84000 M⁻¹ s⁻¹

B8: ShAb18a (ShAb18 VNAR-3c-Fc) (Fc fusion)
chain: ARVDQTPRSVTKETGESLTINCVLREARYELGKTCWYRKRAGSTNEESISAGGRYVETVISGSKSFSLRINDLTVEDGGTYRCGVPPAGWCSKVSCDHVGAGVLEPAACGGGTVVTVNSREPKSCDKGLEVLFQ[no letters for human IgG1 Fc and a few adjoining residues]
[1]
  pseudovirus neutralization IC50: 0.447 µg/mL
  pseudovirus neutralization IC80: 4.47 µg/mL

B9: ShAb15a (ShAb15 VNAR-3c-Fc) (Fc fusion)
chain: ARVDQTPRSVTKETGESLTINCVLRDANYALGSTCWYRKKSGSTNGESISKGGRYVETVNSGSKSFSLRINDLTVEDGGTYRCGVGVVFGRCDFCALERKNYAVCGGGTVVTVNSREPKSCDKGLEVLFQ[no letters for human IgG1 Fc and a few adjoining residues]
SARS-CoV-2 NTD WA-1
  Kd: 73.8 nM
  koff: 0.00745 s⁻¹
  kon: 101000 M⁻¹ s⁻¹

B10: ShAb24a (ShAb24 VNAR-3c-Fc) (Fc fusion)
chain: ARVDQTPQTITKETGESLTINCVLRDSNCPLSSTYWYRKKSGSTNEESIPKAGRYVETVNHGSKSFSLRINDLTVEDSGTYRCKTASNVCRSGGRTSYHYDVYGDGTAVTVNSREPKSCDKGLEVLFQ[no letters for human IgG1 Fc and a few adjoining residues]
[1]
  pseudovirus neutralization IC50: > 2 µg/mL
  pseudovirus neutralization IC80: > 2 µg/mL

B11: ShAb29a (ShAb29 VNAR-3c-Fc) (Fc fusion)
chain: ARVDQTPQTITKETGESLTINCVLRDSNCALSRTYWYRKKSGSTDEESISKGGRYVETVNSGSKSFSLRINDLTVEDSGTYRCNVYSWYGGDHNSWDWRSDPAMVCGDVYGGGTVVTVNSREPKSCDKGLEVLFQ[no letters for human IgG1 Fc and a few adjoining residues]
[1]
  pseudovirus neutralization IC50: > 5 µg/mL
  pseudovirus neutralization IC80: > 5 µg/mL

B12: ShAb12a (ShAb12 VNAR-3c-Fc) (Fc fusion)
chain: ARVDQTPRSVTKETGESLTINCVLRDTNCPLYAAYWYRKSPGSTNEETIWATGRYVQTVNSGLKTFSLRINDLTSEDSGTYRCNGQTWCPATKNNDISGGGTVVTVNSREPKSCDKGLEVLFQ[no letters for human IgG1 Fc and a few adjoining residues]
SARS-CoV-2 NTD WA-1
  Kd: 178 nM
  koff: 0.00553 s⁻¹
  kon: 31000 M⁻¹ s⁻¹
[1]
  pseudovirus neutralization IC50: 3.21 µg/mL
  pseudovirus neutralization IC80: 21 µg/mL

B13: ShAb22a (ShAb22 VNAR-3c-Fc) (Fc fusion)
chain: ARVDQTPQTITKETGESLTINCVLRDNNCALSSTYWYREKSGSTNLESISLGGRYVETVNSGSKSFSLRINDLTVEDSGTYRCKVWGNEGSYDCGLESAVYGGGTVVTVNSREPKSCDKGLEVLFQ[no letters for human IgG1 Fc and a few adjoining residues]
[1]
  pseudovirus neutralization IC50: 0.197 µg/mL
  pseudovirus neutralization IC80: 1.23 µg/mL

B14: ShAb05a (ShAb05 VNAR-3c-Fc) (Fc fusion)
chain: ARVDQTPQTITKETGESLTINCVVRDSNCALGSTYWYRKKSGSTNEESITKGGRSVETVNSGSKSFSLRINDLTVEDSGTYRCKVLSIGWHDPMGLRGCDVYGGGTVVTVNSREPKSCDKGLEVLFQ[no letters for human IgG1 Fc and a few adjoining residues]
[1]
  pseudovirus neutralization IC50: 1.89 µg/mL
  pseudovirus neutralization IC80: > 50 µg/mL

B15: ShAb21a (ShAb21 VNAR-3c-Fc) (Fc fusion)
chain: ARVDQTPRSVTKETGESLTINCVLREARYELGRTCWYRKKSGSRNEESISEGGRYVETVNSGSKSFSLRINDLTVEDGGTYRCGVPAAGWCPERCAPDPPYAVCGGGTVVTVNSREPKSCDKGLEVLFQ[no letters for human IgG1 Fc and a few adjoining residues]
[1]
  pseudovirus neutralization IC50: 1.59 µg/mL
  pseudovirus neutralization IC80: > 2 µg/mL

B16: ShAb11a (ShAb11 VNAR-3c-Fc) (Fc fusion)
chain: ARVDQTPQTITKETGESLTINCVLRDSNCTLSRTYWYRKKSGSTNLESISKGGRYVETVNSGSKSFSLRINDLTVEDSGTYRCASKIRYDCQGIIAYDIYGGGTVVTVNSREPKSCDKGLEVLFQ[no letters for human IgG1 Fc and a few adjoining residues]
SARS-CoV-2 NTD WA-1
  Kd: 8.4 nM
  koff: 0.000756 s⁻¹
  kon: 90400 M⁻¹ s⁻¹
[1]
  pseudovirus neutralization IC50: 0.91 µg/mL
  pseudovirus neutralization IC80: 12.7 µg/mL

B17: ShAb01H02K (ShAb01Hole-02Knob) (bispecific antibody)
chain 1: ARVDQTPRSVTKETGESLTINCVLRDSNCALSSTHWYRKKSGSTNEERILQGRRYVETVNSGSKSFSLRINDLRVEDSGTYRCKVYWGNSWQDKFCPGLGSYEYGDGTAVTVNSREPKSCDKGLEVLFQGP[no letters for human IgG1 Fc with Y407T (EU numbers)]
chain 2: ARVDQTPQTITKETGESLTINCVLRDSNCALASTDWYRKKSGSTNEESISKGGRYVETVNSGSKSFSLRINDLTVEDSGTYRCNAWDSWETRQLKCDYDVYGGGTVVTVNSREPKSCDKGLEVLFQGP[no letters for human IgG1 Fc with T366Y (EU numbers)]
[2]
  pseudovirus neutralization IC50: < 0.02 µg/mL
[1]
  pseudovirus neutralization IC50: < 0.023 µg/mL
  pseudovirus neutralization IC80: 0.055 µg/mL

B18: ShAb13a (ShAb13 VNAR-3c-Fc) (Fc fusion)
chain: ARVDQTPRSVTKETGESLTINCVLRDASYALGSTCWYRKKSGSTNEERISKGGRYVETVNSGSKSFSLRINDLTVEDGGTYRCGVWPGYNWCGSCDYRGDYNFCGDGTAVTVNSREPKSCDKGLEVLFQ[no letters for human IgG1 Fc and a few adjoining residues]
SARS-CoV-2 NTD WA-1
  Kd: 55.7 nM
  koff: 0.00227 s⁻¹
  kon: 40700 M⁻¹ s⁻¹
[1]
  pseudovirus neutralization IC50: 7.02 µg/mL
  pseudovirus neutralization IC80: > 50 µg/mL

B19: ShAb09a (ShAb09 VNAR-3c-Fc) (Fc fusion)
chain: ARVDQTPQTITKETGESLTIDCVLRDSNCALSSTHWYRKKSGSTNEERILQGRRYVETVNSGSKSFSLRINDLRVEDSGTYRCKVYWGNSWQDKFCPGLGSYEYGGGTVVTVNSREPKSCDKGLEVLFQ[no letters for human IgG1 Fc and a few adjoining residues]
[1]
  pseudovirus neutralization IC50: 0.142 µg/mL

B20: ShAb10a (ShAb10 VNAR-3c-Fc) (Fc fusion)
chain: ARVDQTPQTITKETGESLTINCVLRDSNCALSSTYWYRKKSGSTNEESISKGGRYVETVNSGSKSFSLRINDLTVEDSGTYRCHVRLRYDCESVIDFRVYGGGTVVTVNSREPKSCDKGLEVLFQ[no letters for human IgG1 Fc and a few adjoining residues]
[1]
  pseudovirus neutralization IC50: 0.116 µg/mL
  pseudovirus neutralization IC80: 0.551 µg/mL

B21: BiShAb21a (ShAb02 VNAR-25aa-ShAb01 VNAR-3c-Fc) (bispecific antibody)
chain: ARVDQTPQTITKETGESLTINCVLRDSNCALASTDWYRKKSGSTNEESISKGGRYVETVNSGSKSFSLRINDLTVEDSGTYRCNAWDSWETRQLKCDYDVYGGGTVVTVNGGGGSGGGGSGGGGSGGGGSGGGGSARVDQTPRSVTKETGESLTINCVLRDSNCALSSTHWYRKKSGSTNEERILQGRRYVETVNSGSKSFSLRINDLRVEDSGTYRCKVYWGNSWQDKFCPGLGSYEYGDGTAVTVNSREPKSCDKGLEVLFQ[no letters for human IgG1 Fc and a few adjoining residues]
[2]
  pseudovirus neutralization IC50: 0.02 µg/mL
[1]
  pseudovirus neutralization IC50: 0.024 µg/mL
  pseudovirus neutralization IC80: 0.042 µg/mL

Read-outs that look alike come from different tables or passages of the source.
